# From PubChem BioAssay AID485281 (National Center for Advancing Translational Sciences (NCATS), 2010)
# The campaign covered roughly 350,000 compounds. About 260 (0.074%) were called active. The inconclusive results got no clear call from the source; some entries with a clear call stand among them for comparison. The call rests on the fitted dose curve; in most records, active means well fitted inhibition curve with a large enough effect; inconclusive means small, poorly fitted or top-dose-only effect; inactive means no such curve, though single readings can be large or run the other way. Potencies beside an inconclusive call are fits to weak or partial responses and may not hold up.
# Target: Ferritin light chain (Equus caballus) (UniProt P02791)
# Assay: qHTS Assay for Identification of Novel General Anesthetics; further: nearly all actives have a fitted effect of over 20% in size
# Settings: apoferritin/1-aminoanthracene competitive binding, fluorescence; activity change, negative = displacement: at 77.5 µM (top of the series)
# In short: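 Horse-spleen apoferritin (10 uM) was mixed with 50% saturated 1-aminoanthracene in PBS, exposed to compounds for 10 min at room temperature, and read for fluorescence (ex 380 nm, em 535 nm). Competitive displacement was fitted with a four-parameter Hill equation.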
# On the % scale 0 is the no-effect control and ±100 the full control effect; potency means the concentration at half of the fitted maximal effect; tags describe the fitted curve by direction and shape.
# UniProt P02791, sequence (P02791 whole entry, looked up): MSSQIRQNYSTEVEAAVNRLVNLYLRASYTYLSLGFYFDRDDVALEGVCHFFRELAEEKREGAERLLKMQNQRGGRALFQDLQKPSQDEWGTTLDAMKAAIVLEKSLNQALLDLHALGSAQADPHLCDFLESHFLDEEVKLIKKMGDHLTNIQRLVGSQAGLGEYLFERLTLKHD
SMILES,Potency,"activity change, negative = displacement"
O=C(Nc1cccn(Cc2c(F)cccc2Cl)c1=O)NC1CCCCC1,"inconclusive: 35.5 µM [inhibitor, partial curve]",
COCCSc1nnc(NC(=O)Cc2ccc(OC)cc2)s1,"inconclusive: 12.6 µM [inhibitor, partial curve]",
CC1=CCC(C(=O)O)(C(=O)N/N=C/c2cccs2)C(c2ccc([N+](=O)[O-])cc2)C1 (stereo not given),"inconclusive: 14.1 µM [inhibitor, partial curve]",
CC(C)N(C(=O)CSc1nnc(CNc2ccc(F)cc2)o1)C(C)C,,inactive: -3.27%
CC(C)c1ccc(NC(=O)CN2C(=O)c3ccccc3S2(=O)=O)cc1,,inactive: -16%
CCCCCC(C)n1[nH]c(=O)c2c(C)cc(C)nc21 (stereo not given),"inconclusive: 35.5 µM [inhibitor, partial curve]",
Cc1cc(C)c(NS(=O)(=O)c2ccc(-c3cnc(C4CC4)o3)cc2)c(C)c1,,inactive: 75%
O=[N+]([O-])c1cc(Cl)ccc1N1CCN(c2ccccc2O)CC1,"inconclusive: 17.8 µM [inhibitor, partial curve]",
COc1ccccc1C(=O)Nc1ncc2c(n1)CC(c1ccco1)CC2=O (stereo not given),"inconclusive: 25.1 µM [inhibitor, partial curve]",
CCN1CCN(c2ccc(NC(=O)c3cccc(OCc4ccccc4)c3)cc2)CC1,"inconclusive: 31.6 µM [inhibitor, partial curve]",
CC(C)(C)c1ccc(CNc2cc(N3CCOCC3)ccc2[N+](=O)[O-])cc1,"inconclusive: 35.5 µM [inhibitor, partial curve]",
CCC1CCCCN1C(=O)CSc1nnc(-c2ccc3c(c2)OCCO3)o1 (stereo not given),"inconclusive: 28.2 µM [inhibitor, partial curve]",
COc1cccc(C2=Nn3c(nnc3-c3cccc(OC)c3)SC2)c1,"inconclusive: 31.6 µM [inhibitor, partial curve]",
O=C(CSc1ncn[nH]1)c1cccc([N+](=O)[O-])c1,,inactive: -5.88%
CC(C)OC(=O)c1c(NC(=O)c2ccco2)sc2c1CCCCC2,"inconclusive: 50.1 µM [inhibitor, single point]",
Cc1c(NC(=O)CSc2nnc3c4ccccc4n(CCc4ccccc4)c3n2)c(=O)n(-c2ccccc2)n1C,"inconclusive: 14.1 µM [inhibitor, partial curve]",
COc1ccc(CCNC(=O)c2cnn(-c3ccc(F)cc3)c2C2CCN(C(=O)OC(C)(C)C)CC2)c(OC)c1,"inconclusive: 14.1 µM [inhibitor, partial curve]",
CCOC(=O)c1c(-c2ccc(OC)cc2)csc1NC(=O)CCN1C(=O)c2ccccc2C1=O,"inconclusive: 17.8 µM [inhibitor, partial curve]",
Cc1ccccc1S(=O)(=O)Cc1ccc(C(=O)NC2CC2)o1,,inactive: -2.68%
C#CCNC(=O)C1=C[C@H](C2CCCCC2)[C@@H](CCCO)[C@H](OCC)O1,"inconclusive: 35.5 µM [inhibitor, single point]",
Cc1ccc(C(=O)Nc2nc(COc3ccccc3)cs2)s1,"inconclusive: 8.91 µM [inhibitor, full curve, poor fit]",
O=C1CCCCC1Sc1nnc(Nc2ccccc2)s1 (stereo not given),"inconclusive: 44.7 µM [inhibitor, single point]",

SMILES,Potency,"activity change, negative = displacement"
CCCc1cnc(NCCNCC(O)COc2ccc(Cl)c(Cl)c2)nc1 (stereo not given),"inconclusive: 17.8 µM [inhibitor, partial curve]",
CCCn1c(=O)c2sccc2n2c(CCCC(=O)Nc3ccc(Oc4ccc(Cl)cc4)cc3)nnc12,"inconclusive: 7.94 µM [inhibitor, full curve]",
O=C(CCCN1C(=O)/C(=C/c2ccccc2)SC1=S)Nc1cccc(O)c1,"inconclusive: 11.2 µM [inhibitor, partial curve]",
COc1cccc(C2NC(=O)c3ccccc3O2)c1OC (stereo not given),"inconclusive: 50.1 µM [inhibitor, single point]",
O=[N+]([O-])c1ccc(N2CCN(CCO)CC2)cc1Sc1nc2ccccc2[nH]1,"inconclusive: 25.1 µM [inhibitor, single point]",
COCCNC(=S)NC12CC3CC(CC(C3)C1)C2,"inconclusive: 31.6 µM [inhibitor, single point]",
COc1cccc(-c2nc(-c3ccccc3)nc(N3CCN(C)CC3)c2C#N)c1,"inconclusive: 31.6 µM [inhibitor, partial curve]",
COc1ccc(CCN2C(=O)c3[nH]nc(-c4ccccc4O)c3C2c2cccc(Cl)c2)cc1 (stereo not given),"inconclusive: 3.16 µM [inhibitor, full curve, poor fit]",
O=S(=O)(c1cc(Cl)ccc1Cl)n1cccn1,"inconclusive: 15.8 µM [inhibitor, partial curve]",
CC(C)Oc1ccc(CSC(=N)N)cc1,"inconclusive: 28.2 µM [inhibitor, partial curve]",
COc1ccccc1-n1c(=O)[nH]c2c(C(N)=O)nc(C3CCCCC3)nc21,"inconclusive: 35.5 µM [inhibitor, partial curve]",
O=C(OCC(=O)N1CCc2ccccc21)c1ccccc1,"inconclusive: 15.8 µM [inhibitor, partial curve]",
CCOC(=O)c1sc2nc(CSc3ccccc3)nc(N3CCCN(C)CC3)c2c1C,"inconclusive: 25.1 µM [inhibitor, partial curve]",
O=C(Nc1ccccc1F)C1COc2ccccc2O1 (stereo not given),"inconclusive: 28.2 µM [inhibitor, partial curve]",
O=C(CSc1ccc(-c2cccs2)nn1)c1cccs1,"inconclusive: 35.5 µM [inhibitor, single point]",
O=C(NC(Cc1ccccc1)C(=O)O)/C(=C/c1ccc(Cl)cc1)NC(=O)c1ccccc1 (stereo not given),,inactive: -3.66%
O=c1[nH]n(-c2cccc3cccnc23)c(=O)c2ccccc12,"inconclusive: 31.6 µM [inhibitor, partial curve]",
O=C(NCCN1CCN(c2ccccc2)CC1)Nc1cccc(Cl)c1,,inactive: -12.6%
O=C(Cn1nnc2ccccc2c1=O)Nc1ccc2c(c1)CCC2,"inconclusive: 28.2 µM [inhibitor, partial curve]",
Cc1nnc(SCc2nc3scc(-c4ccccc4)c3c(=O)[nH]2)s1,,inactive: -2.61%
CCC(C(=O)NCc1ccco1)N(C(=O)CNS(=O)(=O)c1ccccc1)C1CCCCC1 (stereo not given),"inconclusive: 14.1 µM [inhibitor, partial curve]",
Cc1ccc(O)c(C2=NNC(O)(C(F)(F)F)C2)c1 (stereo not given),"inconclusive: 35.5 µM [inhibitor, partial curve]",

SMILES,Potency,"activity change, negative = displacement"
CN(C)c1ccc(NC(=O)COC(=O)CCC(=O)c2ccc(F)cc2)cc1,"inconclusive: 31.6 µM [inhibitor, partial curve]",
Clc1ccc(-n2nnc(-c3nccs3)n2)cc1Cl,"inconclusive: 3.55 µM [inhibitor, full curve]",
Oc1c(CN2CCc3ccccc3C2)cc(Cl)c2cccnc12,"inconclusive: 56.2 µM [inhibitor, single point]",
CC(C)N(Cc1nc(-c2ccc(Cl)cc2)no1)C(=O)/C=C/c1ccccc1,"inconclusive: 28.2 µM [inhibitor, partial curve, poor fit]",
CCCn1nc(NS(=O)(=O)c2cccc3nonc23)c2cc3cccc(C)c3nc21,"inconclusive: 15.8 µM [inhibitor, partial curve]",
O=C(NCc1ccc(F)cc1)c1ccc2c(c1)nnn2C1CCCC1,"inconclusive: 35.5 µM [inhibitor, partial curve]",
C=CCc1cccc(C=Nc2ccc(Br)cc2)c1O,,inactive: -4.66%
CN(Cc1cccs1)C(=O)CSc1nc2ccccc2[nH]1,"inconclusive: 28.2 µM [inhibitor, single point]",
Cn1c(CSc2nnc(SCc3ccccc3)s2)nc2ccccc21,"inconclusive: 15.8 µM [inhibitor, partial curve]",
CC(C)c1ccc(N(C(=O)c2snc(C(N)=O)c2N)C(C(=O)NC2CCCC2)c2ccncc2)cc1 (stereo not given),"inconclusive: 35.5 µM [inhibitor, partial curve]",
CC(=O)OCC(=O)[C@@]1(O)CC[C@H]2[C@@H]3CCC4=CC(=O)CC[C@]4(C)[C@H]3C(=O)C[C@@]21C,,inactive: -11%
CC(NC(=O)COC(=O)C1CSC2(C)CCC(=O)N12)C12CC3CC(CC(C3)C1)C2 (stereo not given),"inconclusive: 28.2 µM [inhibitor, partial curve]",
CC(O)CNCc1ccc(-c2ccccc2)cc1 (stereo not given),"inconclusive: 28.2 µM [inhibitor, partial curve]",
COc1cc2c(cc1OC)C(COc1ccc3c(C)cc(=O)oc3c1)N(C(=O)c1ccccc1F)CC2 (stereo not given),"inconclusive: 4.47 µM [inhibitor, full curve]",
C/C(=N\O)c1ccc(Cl)c(Cl)c1,"inconclusive: 35.5 µM [inhibitor, partial curve]",
O=C(O)C1C2C=CC(C2)C1C(=O)NCc1ccccn1 (stereo not given),"inconclusive: 44.7 µM [inhibitor, partial curve]",
CC(C)(C)c1cc(C(=O)/C=C/c2ccc(C(=O)O)cc2)cc(C(C)(C)C)c1,"inconclusive: 50.1 µM [inhibitor, single point]",
CCCc1ccc2oc(C(=O)NCCc3cnn(C)c3)c(C)c2c1,,inactive: -20.2%
CC1(C)CC(=O)C(C2C3=C(CC(C)(C)CC3=O)Oc3ccc4ccccc4c32)C(=O)C1 (stereo not given),,inactive: -3.18%
COc1ccc(-c2ccc(NS(=O)(=O)c3cccc(C)c3)cc2)nn1,"inconclusive: 14.1 µM [inhibitor, partial curve]",
O=C(C1CCCCC1)N1CCCC(c2nc3c(nnn3Cc3ccccc3)c(=O)[nH]2)C1 (stereo not given),"inconclusive: 31.6 µM [inhibitor, partial curve]",
